# Results taken from PMC4336329 (PLoS ONE, 2015).
# The campaign covered roughly 310,000 compounds. About 2,200 (0.71%) showed an effect of 50% or more. Effects have a minus sign here. This is one part of the list.
# Target: human ether-à-go-go-related gene (hERG) potassium channel (human, UniProt Q12809)
# Experiment: primary screen, population patch clamp on CHO cells stably expressing hERG
# human ether-à-go-go-related gene (hERG) potassium channel, sequence (Q12809 whole entry, looked up): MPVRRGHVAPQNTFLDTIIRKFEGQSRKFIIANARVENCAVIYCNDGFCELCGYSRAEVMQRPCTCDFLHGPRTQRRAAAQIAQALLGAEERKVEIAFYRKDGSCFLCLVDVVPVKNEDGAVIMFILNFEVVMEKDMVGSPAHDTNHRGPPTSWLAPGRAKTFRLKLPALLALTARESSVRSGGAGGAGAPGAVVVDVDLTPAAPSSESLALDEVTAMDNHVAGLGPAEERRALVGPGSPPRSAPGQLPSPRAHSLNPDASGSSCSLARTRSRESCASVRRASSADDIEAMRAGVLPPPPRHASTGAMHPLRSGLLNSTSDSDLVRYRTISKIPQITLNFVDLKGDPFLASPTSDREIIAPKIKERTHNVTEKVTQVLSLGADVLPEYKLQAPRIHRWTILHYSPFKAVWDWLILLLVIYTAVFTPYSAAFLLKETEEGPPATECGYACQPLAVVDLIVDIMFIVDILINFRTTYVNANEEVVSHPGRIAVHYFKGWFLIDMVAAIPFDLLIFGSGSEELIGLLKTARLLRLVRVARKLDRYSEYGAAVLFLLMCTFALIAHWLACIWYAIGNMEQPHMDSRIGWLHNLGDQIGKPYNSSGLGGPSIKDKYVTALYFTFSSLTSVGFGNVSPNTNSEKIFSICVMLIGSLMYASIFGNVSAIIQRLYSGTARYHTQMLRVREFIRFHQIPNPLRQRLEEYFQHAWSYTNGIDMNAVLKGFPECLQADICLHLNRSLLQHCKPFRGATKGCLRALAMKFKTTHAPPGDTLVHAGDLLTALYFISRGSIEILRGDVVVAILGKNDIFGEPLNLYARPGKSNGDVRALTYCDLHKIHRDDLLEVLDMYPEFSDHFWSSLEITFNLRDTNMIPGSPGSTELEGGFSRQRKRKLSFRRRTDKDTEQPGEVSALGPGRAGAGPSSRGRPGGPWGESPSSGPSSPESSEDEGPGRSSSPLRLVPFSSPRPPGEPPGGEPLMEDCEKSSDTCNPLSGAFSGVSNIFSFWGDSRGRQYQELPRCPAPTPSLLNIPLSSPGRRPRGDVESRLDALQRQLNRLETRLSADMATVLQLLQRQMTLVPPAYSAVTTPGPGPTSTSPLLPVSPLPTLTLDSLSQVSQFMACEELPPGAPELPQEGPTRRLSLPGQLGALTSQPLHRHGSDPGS
row,Compound,"hERG current change (%, negative = inhibition) at 1uM"
1,COc1ccccc1/C=N/NC(=O)c1ccccc1NS(=O)(=O)c1ccc(C)cc1,10.9%
2,O=C(NC1CCCC1)C(c1ccc(Cl)cc1)N(C(=O)c1csnn1)C1CC1 (stereo not shown),8.05%
3,CN(CCc1ccccn1)C(=O)CCNC(=O)Cn1cnc2ccccc2c1=O,25.4%
4,CCC(=NCc1ccc2c(c1)OCO2)c1c(O)n(C2CCCCC2)c(=O)[nH]c1=O,1.39%
5,CCCC1C(=O)N2C(N(C)C)=Nc3ccc(C)cc3N2C1=O (stereo not shown),14.6%
6,COc1ccc(C(=O)Nc2ccccc2C(=O)NCc2cccnc2)cc1,4.97%
7,Cc1cc(C)cc(NC(=O)c2ccc(NC3=NC4CS(=O)(=O)CC4S3)cc2)c1 (stereo not shown),6.88%
8,CCOc1ccccc1Nc1nc(-c2sc(NC(=O)c3ccc([N+](=O)[O-])cc3)nc2C)cs1,5.05%
9,Cc1nn(CC2CC2)c(=O)n1-c1cccc(Cl)c1,7.37%
10,COc1ccc(NC(=O)c2cc([N+](=O)[O-])nn2Cc2ccccc2)c(C)c1,4.91%
11,O=S(=O)(NCc1ccc(C(F)(F)F)cc1)c1ccc(-n2cnnn2)cc1,-0.265%
12,O=C(c1cc(-c2ccccc2)on1)N1CCCCCC1,13.7%
13,O=C(NCCc1ccccc1)c1ccc2nc3cc(Cl)ccc3c(=O)n2c1,18.9%
14,O=C(c1ccc(F)c(S(=O)(=O)N2CCOCC2)c1)N1CCN(c2ncccn2)CC1,7.59%
15,COc1ccc(C(=O)CNc2ccccc2CO)cc1,21.2%
16,CCc1ccccc1N(CC(=O)N1CCCCC1)S(=O)(=O)c1ccccc1,14.5%
17,CCN(Cc1ccncc1)C(=O)c1cccs1,7.16%
18,Cn1c(SCC(=O)NCC2CCCO2)ncc(C(=O)Nc2ccc(F)cc2)c1=O (stereo not shown),5.38%
19,Cc1ccc(NC2CCCN(C(=O)c3ccoc3)C2)cc1C (stereo not shown),14.4%
20,C=CCc1ccccc1OCC(O)CNC(C)C.Cl (stereo not shown),-9.57%
21,O=C(N/N=C/c1ccc([N+](=O)[O-])o1)c1cn2ccc3ccccc3c2n1,8.95%
22,CCNC(=O)C(=O)Nc1ccc([N+](=O)[O-])cc1,10%
23,Cn1c(=O)n(CC(=O)Nc2ccccc2)c2ccccc21,2.53%
24,COc1ccc(C(=O)c2ccc(Cl)cc2Cl)cc1,3.74%
25,COc1ccc(C(C(=O)NCc2ccc(F)cc2)N(C(=O)c2csnn2)C2CC2)cc1 (stereo not shown),-4.62%
